Test results as given in paper PMC6949271.
These are yes or no findings as the source states them, for the method shown. Binding seen in cells or lysates may run through a third protein. Some entries that bind do so weakly or less than the wild type.

Chains of the proteins cited; added tags and fusions are not shown. Lines headed by an entry give the natural chain unless they say otherwise; changes in a name come on top.
UniProt Q92547: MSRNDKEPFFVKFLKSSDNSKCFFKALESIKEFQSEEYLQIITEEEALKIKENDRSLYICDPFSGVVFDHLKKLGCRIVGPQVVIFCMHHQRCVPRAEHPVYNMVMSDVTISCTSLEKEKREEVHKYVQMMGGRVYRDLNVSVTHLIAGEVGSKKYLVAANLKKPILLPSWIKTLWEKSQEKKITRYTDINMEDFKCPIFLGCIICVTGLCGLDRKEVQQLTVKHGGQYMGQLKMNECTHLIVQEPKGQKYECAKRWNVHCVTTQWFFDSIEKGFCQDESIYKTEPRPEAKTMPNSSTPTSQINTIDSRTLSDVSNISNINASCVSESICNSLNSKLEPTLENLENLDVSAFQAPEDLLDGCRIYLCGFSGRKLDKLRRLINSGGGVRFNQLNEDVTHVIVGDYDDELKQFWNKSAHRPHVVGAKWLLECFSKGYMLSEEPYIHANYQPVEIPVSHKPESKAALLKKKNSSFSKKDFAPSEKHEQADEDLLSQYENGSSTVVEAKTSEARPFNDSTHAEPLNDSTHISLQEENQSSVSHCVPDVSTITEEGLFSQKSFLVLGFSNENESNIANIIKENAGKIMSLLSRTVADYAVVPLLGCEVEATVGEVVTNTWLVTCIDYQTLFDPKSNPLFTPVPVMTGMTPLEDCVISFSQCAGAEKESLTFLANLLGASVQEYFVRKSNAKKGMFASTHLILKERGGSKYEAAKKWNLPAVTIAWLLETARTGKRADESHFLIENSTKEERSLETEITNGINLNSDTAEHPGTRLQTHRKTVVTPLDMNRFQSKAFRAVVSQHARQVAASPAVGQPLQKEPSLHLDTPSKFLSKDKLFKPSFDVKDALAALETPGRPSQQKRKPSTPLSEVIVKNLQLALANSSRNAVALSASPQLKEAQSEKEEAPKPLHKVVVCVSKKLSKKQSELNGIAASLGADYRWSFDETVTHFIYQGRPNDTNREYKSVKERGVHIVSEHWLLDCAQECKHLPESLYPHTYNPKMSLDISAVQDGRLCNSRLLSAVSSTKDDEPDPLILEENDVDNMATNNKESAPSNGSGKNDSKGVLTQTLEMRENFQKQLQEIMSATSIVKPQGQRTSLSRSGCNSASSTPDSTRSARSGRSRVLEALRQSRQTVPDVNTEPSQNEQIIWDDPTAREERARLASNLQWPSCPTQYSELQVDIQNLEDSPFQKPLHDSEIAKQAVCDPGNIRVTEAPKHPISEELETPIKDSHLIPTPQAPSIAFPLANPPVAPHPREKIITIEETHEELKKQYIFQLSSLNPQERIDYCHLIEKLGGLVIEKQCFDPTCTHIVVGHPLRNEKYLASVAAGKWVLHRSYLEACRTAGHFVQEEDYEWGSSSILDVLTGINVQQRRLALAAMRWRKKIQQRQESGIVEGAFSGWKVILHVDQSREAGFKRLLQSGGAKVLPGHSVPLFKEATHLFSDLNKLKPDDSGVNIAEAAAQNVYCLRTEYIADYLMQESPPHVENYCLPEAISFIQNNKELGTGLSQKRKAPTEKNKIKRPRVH
UniProt P54132: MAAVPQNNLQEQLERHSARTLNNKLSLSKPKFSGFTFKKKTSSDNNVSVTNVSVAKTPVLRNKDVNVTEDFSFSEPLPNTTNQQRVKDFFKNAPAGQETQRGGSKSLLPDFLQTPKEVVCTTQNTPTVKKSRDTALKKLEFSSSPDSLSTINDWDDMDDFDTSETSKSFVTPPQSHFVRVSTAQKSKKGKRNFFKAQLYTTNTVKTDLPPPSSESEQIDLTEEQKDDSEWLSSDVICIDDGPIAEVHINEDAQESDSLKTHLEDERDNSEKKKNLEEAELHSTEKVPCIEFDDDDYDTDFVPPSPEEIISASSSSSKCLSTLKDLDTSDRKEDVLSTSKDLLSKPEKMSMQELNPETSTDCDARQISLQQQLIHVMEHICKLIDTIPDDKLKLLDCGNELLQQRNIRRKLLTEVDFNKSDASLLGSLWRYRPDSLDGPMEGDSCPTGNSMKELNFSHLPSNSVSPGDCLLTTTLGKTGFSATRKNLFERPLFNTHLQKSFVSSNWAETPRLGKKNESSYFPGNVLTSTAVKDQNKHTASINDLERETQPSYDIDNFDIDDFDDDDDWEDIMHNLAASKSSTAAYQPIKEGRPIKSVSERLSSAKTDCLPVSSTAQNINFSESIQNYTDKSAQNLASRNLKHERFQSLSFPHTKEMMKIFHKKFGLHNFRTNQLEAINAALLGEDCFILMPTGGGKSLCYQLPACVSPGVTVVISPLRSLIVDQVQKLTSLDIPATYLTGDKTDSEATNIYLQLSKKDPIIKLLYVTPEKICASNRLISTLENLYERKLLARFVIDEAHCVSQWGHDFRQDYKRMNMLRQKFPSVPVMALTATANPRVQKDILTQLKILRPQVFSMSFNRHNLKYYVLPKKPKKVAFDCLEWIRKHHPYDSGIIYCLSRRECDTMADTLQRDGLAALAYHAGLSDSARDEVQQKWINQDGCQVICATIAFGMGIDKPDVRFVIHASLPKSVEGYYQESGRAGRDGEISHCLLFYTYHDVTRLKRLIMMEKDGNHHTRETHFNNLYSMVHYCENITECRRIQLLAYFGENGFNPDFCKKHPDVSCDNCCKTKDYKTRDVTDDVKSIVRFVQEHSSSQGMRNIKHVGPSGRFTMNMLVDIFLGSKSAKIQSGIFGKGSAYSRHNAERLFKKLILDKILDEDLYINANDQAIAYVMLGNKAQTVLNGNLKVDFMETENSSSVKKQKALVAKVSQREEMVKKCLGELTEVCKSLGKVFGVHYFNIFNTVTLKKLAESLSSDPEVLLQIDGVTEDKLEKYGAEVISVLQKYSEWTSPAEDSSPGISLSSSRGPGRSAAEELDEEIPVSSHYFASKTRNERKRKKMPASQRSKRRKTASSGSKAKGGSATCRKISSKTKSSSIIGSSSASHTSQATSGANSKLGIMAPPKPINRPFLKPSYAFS

Legend:
Experiment in all cases: co-IP; GFP-tagged TOPBP1 constructs captured on GFP-Trap magnetic agarose from Benzonase-treated lysates of transfected 293FT cells (200 mM NaCl, 2 mM EDTA, 4 °C); endogenous partners detected by blot
[1] = biological target: GFP-tagged full-length TOPBP1 K154A/K155A (BRCT1 mutant) (UniProt Q92547)
[2] = biological target: GFP-tagged full-length TOPBP1 K704A (BRCT5 mutant) (UniProt Q92547)
[3] = biological target: GFP-tagged full-length TOPBP1, wild type (UniProt Q92547)

For “BLM, endogenous (293FT) (from UniProt P54132 1-1417)”, the binding [1] was “binds”, the binding [2] was “no binding” and the binding [3] was “binds”.
